# Laboratory results from PMC12040169 (PLOS Biology, 2025).
# Some of the results follow.
# Tested on: T1, C. trachomatis L2/434/Bu expressing GFP (CTL2-GFP)
# T1 construct: L2/434/Bu GFP intracellular growth in HeLa cells
# Parameters: species or system HeLa; C. trachomatis total inclusion area by high-content imaging, normalised to DMSO
# Settings: total inclusion area; 28.5 h, 10 µM; inhibitor
# Procedure, shortened: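 Bulk GFP and resorufin signals were read first. Wells were then fixed, stained with Hoechst and imaged to detect GFP inclusions and host nuclei. MICs followed the previously described calculation.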
row,Compound,% of control remaining
1,O=C(Cc1ccccc1)Nc1ccccc1C(=O)NCc1cccnc1 [CBK269228],90.9237
2,CCc1ccc(CNC(=O)Cn2cnc(-c3ccc(CN4CCC(C)CC4)cc3)c2)cc1 [CBK158710T],69.9351
3,CSc1cccc(NC(=O)NCCN2CCNC2=O)c1 [CBK057191],56.397
4,Cc1nc(CCN2CCN(c3ccc4nccn4n3)CC2)cs1 [CBK306932],53.9789
5,COc1ccccc1/C=N/NC(=O)C(=O)NCc1ccccn1 [CBK262286],93.9447
6,Nc1ncn(Cc2ccccc2)c2nc(SCC(=O)O)nc1-2 [CBK267027],123.961
7,Cc1cc(C(=O)N2C[C@H]3CC[C@](O)(c4ccc(F)cc4)[C@H]3C2)on1 [CBK284354],89.3025
8,COc1cc(C(=O)NCCN2CCCC2)ccc1Nc1cncc(-c2ccc(O)cc2)n1 [CBK122661],85.7127
9,CCOc1ccccc1CNc1ccc(C2c3ccsc3CCN2C(=O)COC)cc1 (stereo not shown) [CBK286461],114.385
10,Cc1cc(C2CCCCCN2S(=O)(=O)c2ccc(F)cc2)on1 (stereo not shown) [CBK284668],76.5595
11,O=C(Nc1ccc(N2CCN(C(=O)c3ccco3)CC2)cc1)c1cc([N+](=O)[O-])ccc1N1CCOCC1 [CBK269052],103.2
12,CCOC(=O)c1cc(Cl)cnc1C1CCN(C(=O)C2CC2)CC1 [CBK284810],103.172
13,Cc1cnn(C2CCCN(C(=O)CCCc3cccs3)C2)c1 (stereo not shown) [CBK304168],33.6851
14,COCc1cn([C@H]2CO[C@H]3[C@@H]2OC[C@H]3OC)nn1 [CBK289490],117.783
15,COC(=O)c1c(NC(=O)C(C)Oc2cc(C)c(Cl)c(C)c2)sc(C(C)=O)c1C (stereo not shown) [CBK265678],89.7215
16,COc1ccc(C(=O)/C=C/c2ccc(N3N=C(c4ccccc4)CC3c3ccccc3)cc2)cc1 (stereo not shown) [CBK262274],74.4429
17,CC(C)(C)c1ccc(S(=O)(=O)N2CCCC[C@H]2CCOC(=O)c2ncccc2C(=O)O)cc1 [CBK200066],106.221
18,O=C1NC2(CCCN(C(=O)c3ccco3)C2)Oc2ccccc21 (stereo not shown) [CBK284800],111.704
19,O=C(Nc1ccc(NC(=O)Nc2cccc(Cl)c2)cc1)Nc1cccc(Cl)c1 [CBK267623],111.34
20,CCN(CC)C(=O)N1CCN(CCCC(=O)c2ccc(F)cc2)CC1 [CBK025042C],63.7041

row,Compound,% of control remaining
1,c1cncc(CNc2nccnc2-c2ccoc2)c1 [CBK037635],99.5638
2,CC1(C)Cc2nc3sc4c(=O)n(CC(=O)NCCc5ccccc5)cnc4c3cc2CS1 [CBK269180],77.8977
3,c1ccc(C(Oc2nccnc2-c2ccncc2)c2ccccc2)cc1 [CBK106728],85.2605
4,CCC(=O)N1C2CCC1c1cnc3cc(-c4ccco4)nn3c1C2 (stereo not shown) [CBK284384],76.2626
5,COc1ccc(C(C)C)cc1-c1cnc2[nH]c(=O)n(CCc3cccnc3)c2n1 [CBK064343],68.2108
6,CC(C)(C)Nc1c(C2CCN(C(=O)C3CC3)CC2)nc2ccccn12 [CBK284787],78.6931
7,CC(=O)Oc1ccc2c(=O)c(C3NC(C(=O)O)Cc4c3[nH]c3ccccc43)coc2c1 (stereo not shown) [CBK293948],109.365
8,Cc1ccc(NC(=O)N(Cc2ccc3ccccc3c2)CC2CCNCC2)cc1[N+](=O)[O-] [CBK049771],85.2702
9,O=C(Cc1cccnc1)N1Cc2ccccc2C1 [CBK200320],129.472
10,CC(=O)Nc1ccc(-n2cc(CN3CCC(Sc4ccccn4)CC3)nn2)cc1 [CBK149476],80.8371
11,COc1ccc([C@@H]2CN(C(=O)c3ccccc3)[C@H]3CCN(Cc4ccc(F)cc4)C[C@@H]23)cc1 [CBK285581],53.5983
12,CC(C)CNc1nccnc1-c1ccc2c(c1)OCO2 [CBK088730],89.324
13,Cc1cc(COc2cc(N3CCCNCC3)ncn2)no1 [CBK085462],49.1601
14,CCOC(=O)N1CCN(C(=O)C2CC=CCC2C(=O)O)CC1 (stereo not shown) [CBK266142],112.506
15,CC(=O)N1CC2(CCN(C(=O)c3ccco3)CC2)Nc2ccccc21 [CBK284447],78.9969
16,Cc1c(Cl)cccc1NC(=S)/N=C(\N)Nc1nc(C)c2ccccc2n1 [CBK268866],66.8158
17,COc1cc(CNC2CCCc3c2cnn3C)c(O)c(C(C)(C)C)c1 (stereo not shown) [CBK304716],59.7809
18,COc1ccc(OCCCOc2ccccc2C(C)C)cc1 [CBK026366],58.2354
19,CCCC/C=C\c1nccnc1OCCn1cccc1 [CBK106891],98.9183
20,COc1ccc(-c2noc([C@@H]3C[C@@H](O)CN3Cc3cccc(C#N)c3)n2)cc1 [CBK288843],111.27
